Here are results for 1 molecule from PMC11697113, “The Hsc70 system maintains the synaptic SNARE protein SNAP-25 in an assembly-competent state and delays its aggregation [image fx2.gif]” (The Journal of Biological Chemistry, 2024).

This assay concerns the target T1, heat shock cognate 70 (Hsc70), human constitutively expressed Hsp70, wild type (human, UniProt P11142).
T1 construct: Hsc70, the human constitutively expressed Hsp70; also called WT Hsc70; His-Hsc70 (before cleavage); source: E. coli Rosetta (DE3), purified (Ni-NTA, TEV cleavage, second Ni-NTA)
T1 sequence (P11142 whole entry): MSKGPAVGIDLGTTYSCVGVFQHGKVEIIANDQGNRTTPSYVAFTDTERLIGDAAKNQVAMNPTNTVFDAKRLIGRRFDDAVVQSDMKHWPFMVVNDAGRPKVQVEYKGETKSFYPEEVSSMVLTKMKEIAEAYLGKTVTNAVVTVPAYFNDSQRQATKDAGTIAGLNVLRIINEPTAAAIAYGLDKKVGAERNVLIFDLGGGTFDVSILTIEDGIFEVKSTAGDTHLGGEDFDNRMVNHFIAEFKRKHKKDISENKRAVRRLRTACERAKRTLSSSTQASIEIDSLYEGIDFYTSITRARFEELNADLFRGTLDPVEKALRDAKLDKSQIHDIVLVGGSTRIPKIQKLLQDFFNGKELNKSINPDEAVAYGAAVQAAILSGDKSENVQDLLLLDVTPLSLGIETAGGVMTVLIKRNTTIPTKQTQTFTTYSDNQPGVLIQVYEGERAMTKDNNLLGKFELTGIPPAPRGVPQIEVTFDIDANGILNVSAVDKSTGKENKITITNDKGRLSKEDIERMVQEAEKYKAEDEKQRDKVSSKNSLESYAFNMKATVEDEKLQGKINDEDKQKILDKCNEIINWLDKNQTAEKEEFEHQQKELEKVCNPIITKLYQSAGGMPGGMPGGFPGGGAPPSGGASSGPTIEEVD
In words: fluorescence polarisation; competition followed by fluorescence anisotropy: competitor titrated 0 to 200 μM into a complex of Hsc70 (5 μM) and FITC-p5 (50 nM); 20 mM phosphate buffer pH 7.4, 100 μM MgCl2, 100 mM KCl; overnight at 4 °C. The note with it: both partners purified. On the technique in general: Fluorescence polarisation rises when a labelled molecule tumbles more slowly, as on binding a larger partner.

B1: SNAP-25 SNC fragment (SNCFR […]) (domain or fragment)
chain: not shown
notes: SNAP-25, C-terminal SNARE motif fragment, […]; plasmid from J. Rizo; source: E. coli BL21 (DE3), purified (Ni-NTA, TEV cleavage, second Ni-NTA)
For B1, the binding result is on record as “binds”.
